Source: PubChem BioAssay AID504332 (National Center for Advancing Translational Sciences (NCATS), 2011)
Among all 350,000 compounds or so, about 31,000 (8.9%) were called active. The inconclusive results got no clear call from the source; some entries with a clear call stand among them for comparison. The call rests on the fitted dose curve; in most records, active means well fitted inhibition curve with a large enough effect; inconclusive means small, poorly fitted or top-dose-only effect; inactive means no such curve, though single readings can be large or run the other way. A potency beside an inconclusive call is a rough fit, not a confirmed value.

target: Histone-lysine N-methyltransferase EHMT2 (Homo sapiens) (UniProt Q96KQ7); experiment: qHTS Assay for Inhibitors of Histone Lysine Methyltransferase G9a; conditions: G9a H3K9 monomethylation, AlphaScreen, 2 h; activity, negative = inhibition: at 59 µM (top of the series) unless noted; further: nearly all actives have a fitted effect of over 75% in size
Sequence of UniProt Q96KQ7 (Q96KQ7 whole entry, looked up): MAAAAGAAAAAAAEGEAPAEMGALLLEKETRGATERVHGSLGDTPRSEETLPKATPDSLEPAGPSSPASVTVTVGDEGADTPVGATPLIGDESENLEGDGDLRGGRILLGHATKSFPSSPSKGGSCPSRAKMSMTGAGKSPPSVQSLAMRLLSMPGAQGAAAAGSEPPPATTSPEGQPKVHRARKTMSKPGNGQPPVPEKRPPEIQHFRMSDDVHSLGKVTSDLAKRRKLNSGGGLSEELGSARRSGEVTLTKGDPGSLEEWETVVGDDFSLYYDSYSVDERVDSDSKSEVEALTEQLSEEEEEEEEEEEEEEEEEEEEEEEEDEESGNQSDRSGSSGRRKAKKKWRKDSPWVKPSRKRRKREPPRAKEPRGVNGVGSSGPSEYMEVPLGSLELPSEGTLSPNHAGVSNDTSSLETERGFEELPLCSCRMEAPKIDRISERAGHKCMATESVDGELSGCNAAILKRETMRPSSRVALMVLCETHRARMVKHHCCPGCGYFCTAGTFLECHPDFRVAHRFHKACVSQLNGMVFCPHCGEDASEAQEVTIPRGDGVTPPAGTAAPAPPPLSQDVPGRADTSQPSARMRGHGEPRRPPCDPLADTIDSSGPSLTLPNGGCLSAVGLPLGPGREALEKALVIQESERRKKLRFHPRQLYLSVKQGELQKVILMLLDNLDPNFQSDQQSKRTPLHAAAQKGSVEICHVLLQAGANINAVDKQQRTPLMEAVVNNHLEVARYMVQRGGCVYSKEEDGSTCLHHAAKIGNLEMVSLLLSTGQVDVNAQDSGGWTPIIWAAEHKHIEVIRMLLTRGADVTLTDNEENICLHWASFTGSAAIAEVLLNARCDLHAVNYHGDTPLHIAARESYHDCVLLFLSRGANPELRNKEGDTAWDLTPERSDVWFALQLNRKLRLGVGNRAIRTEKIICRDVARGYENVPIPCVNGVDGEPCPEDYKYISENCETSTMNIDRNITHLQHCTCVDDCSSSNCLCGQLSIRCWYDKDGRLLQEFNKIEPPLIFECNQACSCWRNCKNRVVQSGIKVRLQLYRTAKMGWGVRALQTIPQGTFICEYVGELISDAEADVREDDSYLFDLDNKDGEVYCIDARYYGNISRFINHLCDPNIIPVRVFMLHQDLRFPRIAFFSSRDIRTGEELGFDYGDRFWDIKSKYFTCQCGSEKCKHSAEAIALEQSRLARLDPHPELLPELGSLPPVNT
Outline: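 Enzyme 20 nM + cpd, 15 min RT; add b-H3K9 pep 500 nM / SAM 20 uM; 2 h RT; anti-H3K9me1 Ab 0.5 ug/mL + SA donor / anti-rabbit acceptor beads 20 ug/mL each, 10 min; AlphaScreen read.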
On the % scale 0 is the no-effect control and ±100 the full control effect; potency means the concentration at half of the fitted maximal effect; tags describe the fitted curve by direction and shape.

SMILES | Potency | activity, negative = inhibition
CCOC(=O)c1c(NC(=S)Nc2ccc(Cl)cc2)sc2c1CCN(C)C2 | inconclusive: 28.2 µM [inhibitor, partial curve, poor fit] | 
CCOc1ccc(-c2c(C(=O)N/N=C/C3CC=CCC3)nnn2-c2nonc2N)cc1 (centres undefined) | inactive | 
COc1ccc(Oc2ccc(/C=C/C(=O)c3ccc(O)cc3)cc2[N+](=O)[O-])cc1 | active: 39.8 µM | 
O=C(Oc1nsnc1N1CCCCC1)N1CCOCC1 | inactive | 
Cc1cc(C(=O)COc2ccc(F)cc2Br)c(C)n1C1CC1 | inconclusive: 50.1 µM [inhibitor, partial curve] | 
CCOc1cc2c(C#N)c(N3CCNCC3)nc(N)c2c(N)n1 | inconclusive: 3.16 µM [inhibitor, single point] | 
C=CCS(=O)(=O)c1cccc2cccnc12 | inconclusive: 0.447 µM [inhibitor, full curve] | 
CC1CCN(CC(=O)Nc2ccc(Br)cc2[N+](=O)[O-])CC1 | inconclusive: 15.8 µM [inhibitor, full curve, poor fit] | 
O=C(COC(=O)C1=COCCO1)Nc1ccc(Oc2ccccc2)cc1 | inconclusive: 35.5 µM [inhibitor, single point] | 
COc1ccc2c(c1)Cc1sc(NC(=O)c3ccc(Cl)cc3)nc1-2 | inactive | 
Nn1c(SCC(=O)NC2CCCCC2)nnc1C1CC1 | inconclusive: 1.58 µM [inhibitor, partial curve, poor fit] | 
COc1ccc(N2CCN(C(=O)CCNC(=O)c3ccc(C(C)(C)C)cc3)CC2)cc1 | active: 44.7 µM | 
Cc1ccc(-n2c(SCc3ccccc3C)nc3[nH]ncc3c2=O)cc1C | inactive | 
Cc1[nH]n(-c2ccccc2)c(=O)c1/C=N/N(C)c1ccccc1 | active: 12.6 µM | 
COC(=O)Cn1cc(/C=C/[N+](=O)[O-])c2ccccc21 | active: 39.8 µM | 
COc1cccc(NC(=O)c2cn(C)c(=O)c3cc(OC)c(OC)cc23)c1 | inactive | 
CSCC[C@H](NC(=O)N1CCn2c1nc1ccccc12)C(=O)NC1CCCCC1 | inconclusive: 56.2 µM [inhibitor, single point] | 
O=C1/C(=C/c2ccc3c(c2)OCO3)Oc2cc(OCC(=O)N3CC(O)C[C@H]3C(=O)O)ccc21 (some centres undefined) | inconclusive: 89.1 µM [inhibitor, single point] | 
COc1ccc(-c2ccccc2)cc1NCc1ccccc1C | inconclusive: 28.2 µM [inhibitor, single point] | 
CCN(C(=O)c1ccncc1)c1c(N)n(Cc2ccccc2)c(=O)[nH]c1=O | inconclusive: 89.1 µM [inhibitor, partial curve, poor fit] | 
Cn1nccc1C(=O)Nc1ccccc1C(=O)O | inconclusive: 79.4 µM [inhibitor, single point] | 
Cc1oc2c(c(=O)c1C)C(=O)CC(c1ccccc1)C2 (centres undefined) | inactive | 
CC(=O)N(c1ccc2oc(=O)sc2c1)S(=O)(=O)c1ccc(C)cc1 | active: 25.1 µM | 

SMILES | Potency | activity, negative = inhibition
CC(=O)N1CCCc2ccc(NC(=O)c3ccc(C(F)(F)F)cc3)cc21 | inactive | 
Cc1ccccc1-c1noc(-c2ccc(N3CCCC3)c([N+](=O)[O-])c2)n1 | inconclusive: 28.2 µM [inhibitor, partial curve, poor fit] | 
COc1cc(/C=N/NC(=O)c2ccc(N(C)S(=O)(=O)c3ccccc3)cc2)cc(OC)c1OC | inactive | 
COc1nccnc1NS(=O)(=O)c1ccc(N=Cc2c(C)[nH]n(-c3ccc(C)c(C)c3)c2=O)cc1 | active: 44.7 µM | 
CCOc1cc(C(=O)OCC(=O)Nc2ncc(Cl)c(C)c2Cl)ccc1OCC(=O)N1CCOCC1 | active: 44.7 µM | 
COC(=O)c1[nH]c2cc(OC)ccc2c1NC(=O)CN1CCC(C(N)=O)(N2CCCCC2)CC1 | inconclusive: 28.2 µM [inhibitor, single point] | 
O=S(=O)(c1ccc(F)cc1)N1CCC(N2CCCC2)CC1 | inconclusive: 0.891 µM [inhibitor, full curve, poor fit] | 
COc1cccc(-c2nc(N3CCN(C)CC3)c3ccccc3n2)c1O | inconclusive: 50.1 µM [inhibitor, partial curve, poor fit] | 
CCS(=O)(=O)N1Cc2ccccc2CC1C(=O)N1CCN(c2cccc(C)c2C)CC1 (centres undefined) | inconclusive: 3.98 µM [inhibitor, single point] | 
CCN(CC)C(=O)CSc1ncnc2c1nnn2-c1ccc(OC)cc1 | inactive | 
Cc1ccccc1CNC(=O)Nc1ccc(Cl)cc1 | inactive | 
NC1=NC(=O)C(CC(=O)c2ccc(Cl)cc2)S1 (centres undefined) | inconclusive: 79.4 µM [inhibitor, single point] | 
Cc1cc(C)cc(NC(=O)CSc2nnc(CNC(=O)c3c(F)cccc3Cl)o2)c1 | inactive | 
O=C(O)c1ccc(N=NN2CCOCC2)cc1 | inconclusive: 28.2 µM [inhibitor, single point] | 
COc1cccc(-n2c(SCC(=O)NCCC3=CCCCC3)nc3n[nH]c(C)c3c2=N)c1 | inactive | 
Cc1onc(-c2ccccc2)c1C(=O)Nc1ccc(Cl)c(S(=O)(=O)N2CCOCC2)c1 |  | inactive: 11.4% [at 2.33 µM]
Cc1cccc(C)c1NC(=O)N1C(C(=O)O)CSC1C(=O)O (centres undefined) | inconclusive: 20 µM [inhibitor, partial curve, poor fit] | 
CCOC(=O)CCc1c(C)nc(SCc2ccc(C(=O)O)cc2)c(C#N)c1C | inactive | 
COc1cccc2cc(/C(C)=N/Nc3nc(-c4cc(C)ccc4C)cs3)c(=O)oc12 | inconclusive: 10 µM [inhibitor, partial curve, poor fit] | 
Cc1cc(C(F)F)n2nc(C(=O)Nc3sc4c(c3C(N)=O)CCC4)nc2n1 | active: 39.8 µM | 
O=c1c2c3c(sc2n(CCN2CCCC2)c(=O)n1Cc1ccco1)CCCCC3 | inactive | 
O=C(NNc1c2ccccc2nc2ccccc12)c1ccc(O)cc1O | inconclusive: 20 µM [inhibitor, single point] | 
COc1cc2cc(C)c(SCC(=O)N3CCN(C(=O)c4ccco4)CC3)nc2cc1OC |  | inconclusive: -60% [inhibitor]

SMILES | Potency | activity, negative = inhibition
COc1ccccc1OCC(=O)O | inconclusive: 31.6 µM [inhibitor, single point] | 
O=C(Nc1ccccc1N1CCCCC1)C1CCN(S(=O)(=O)c2ccccc2C(F)(F)F)CC1 | inactive | 
Cc1c(NC(=O)C2CC(c3ccc(F)cc3)=NO2)c(=O)n(-c2ccccc2)n1C (centres undefined) | inconclusive: 89.1 µM [inhibitor, single point] | 
COC(=O)c1[nH]c2cccc(OC)c2c1NC(=O)CCN1CCC(C(N)=O)CC1 | inconclusive: 50.1 µM [inhibitor, partial curve] | 
COCCNC(=O)c1ccccc1NC(=O)Cc1ccccc1[N+](=O)[O-] | inconclusive: 3.55 µM [inhibitor, partial curve, poor fit] | 
CC(Sc1nnc(-c2ccc(Cl)cc2)n1N)C(=O)NCC1CCCO1 (centres undefined) | inactive | 
CCCn1[nH]cc(SC)c(=O)c1=O | inconclusive: 22.4 µM [inhibitor, partial curve, poor fit] | 
COc1ccc2c(C)c(CC(=O)N3C[C@H]4C[C@@H](C3)c3cccc(=O)n3C4)c(=O)oc2c1OC | inconclusive: 89.1 µM [inhibitor, single point] | 
CCOC(=O)COc1ccc(/C=C2/SC(=Nc3ccccc3)N(Cc3cccnc3)C2=O)cc1OC |  | inconclusive: -69% [inhibitor]
Cc1c(C(=O)O)sc2nc(/C=C/c3ccccc3OC(F)F)[nH]c(=O)c12 | inconclusive: 89.1 µM [inhibitor, single point] | 
N#C/C(=C\c1c(Oc2ccc(F)cc2)nc2ccccn2c1=O)c1nc2ccccc2s1 | active: 2.24 µM | 
c1ccc(CSc2ccc(-c3cccnc3)nn2)cc1 | inconclusive: 39.8 µM [inhibitor, partial curve, poor fit] | 
CC1CC(C)CN(c2ccc(-n3cnnn3)cc2[N+](=O)[O-])C1 (centres undefined) |  | inconclusive: -66.9% [inhibitor]
COc1ccc(-n2ccnc2SCC(=O)NCc2ccccc2)c(OC)c1 | inconclusive: 70.8 µM [inhibitor, partial curve, poor fit] | 
CC(NC(=O)c1ccco1)C(c1cccs1)N1CCN(c2ccccc2)CC1 (centres undefined) | inconclusive: 50.1 µM [inhibitor, partial curve] | 
Cc1ccc(C)c(SCC(=O)OCC(=O)NCCNC(=O)COC(=O)CSc2cc(C)ccc2C)c1 | inconclusive: 89.1 µM [inhibitor, partial curve, poor fit] | 
Cc1ccccc1C(C(=O)NC1CCCCC1)N(C(=O)CNC(=O)c1ccco1)c1cccnc1 (centres undefined) | inactive | 
CCOc1cccc(C2/C(=C(\O)c3ccc4c(c3)OCCO4)C(=O)C(=O)N2Cc2ccncc2)c1 (centres undefined) | inactive | 
Cc1oc(-c2cccc(Br)c2)nc1CSc1nc2ncccc2[nH]1 | inconclusive: 8.91 µM [inhibitor, partial curve, poor fit] | 
O=C(CCCN1C(=O)NC2(CCCC2)C1=O)Nc1cccc(S(=O)(=O)N2CCOCC2)c1 | inconclusive: 39.8 µM [inhibitor, partial curve, poor fit] | 
Cc1ccccc1CS(=O)(=O)c1ncc(Cl)c(C(=O)Nc2nnc(C(C)C)s2)n1 | inconclusive: 0.891 µM [inhibitor, full curve, poor fit] | 
Cc1ccccc1-c1ccc(=O)n(CC(=O)Nc2ccc(N3CCOCC3)cc2)n1 | inconclusive: 79.4 µM [inhibitor, partial curve] | 
Oc1ccc(CNc2ccccc2O)cc1 | inconclusive: 8.91 µM [inhibitor, partial curve, poor fit] | 
